# Reference: PubChem BioAssay AID504706 (National Center for Advancing Translational Sciences (NCATS), 2011)
# Screen size: about 320,000 compounds; about 200 (0.062%) were called active. Inconclusive results, whose numbers are uncertain, are shown with a selection of clear calls. Calls come from the whole dose curve; as a rule, active = well fitted activation curve with a large enough effect; inconclusive = small, poorly fitted or top-dose-only effect; inactive = no such curve, though single readings can be large or run the other way. Potencies of inconclusive entries are left out as doubtful fits.
# Assay: qHTS assay for re-activators of p53 using a Luc reporter; note: nearly all actives have a fitted effect of over 45% in size; for activity change, positive = activation: % of control where 0% means no effect
# Details: H1299 p53-A138V BP100-luciferase reporter, luminescence, 24 h; series mostly up to 92.2 µM; activity change, positive = activation: at the top concentration
# Method in brief: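 p53-null H1299 cells stably carrying temperature-sensitive p53-A138V and a BP100-luciferase reporter were pinned with compounds (4-point, 1:5 series) and held 24 hrs at 37 deg C. Luminescence was read 10 min after detection reagent.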
# Potency is the fitted concentration of half-maximal effect; tags give direction and shape of the fitted curve.
Structure (SMILES),Potency,"activity change, positive = activation"
Cc1ccc(/C=N/Nc2cccc3cccnc23)c(O)c1,"inconclusive [activator, partial curve, poor fit]",
COc1ccc2c(c1)CCc1c(C(=O)NC3CCCCC3)noc1-2,"inconclusive [activator, full curve, poor fit]",
CCOC(=O)CSc1nc(-c2ccncc2)ccc1C#N,"inconclusive [activator, partial curve, poor fit]",
CCCCC(=O)Nc1ccc(NC(=O)C2CC2)cn1,"inconclusive [activator, single point]",
Cc1ccc2nc(NC(=O)CNS(=O)(=O)c3ccc(Br)s3)sc2c1,"inconclusive [activator, single point]",
CCN(CC)c1ccc(/C=N/Nc2nc(C)cc(C)n2)c(O)c1,"inconclusive [activator, partial curve, poor fit]",
O=C(Nc1cnn(Cc2ccc(F)cc2)c1)c1noc2c1CCCC2,"inconclusive [activator, full curve, poor fit]",
O=S(=O)(c1ccc(S(=O)(=O)N2CCCC2)cc1)N1CCCCCC1,,inactive: 9.8%
NC(=O)c1ccsc1NC(=O)CSc1ccccc1F,"inconclusive [activator, partial curve, poor fit]",
COc1ccc(C(=O)NNC(=O)C2(C)CC2(Br)Br)cc1 (configuration not stated),"inconclusive [activator, partial curve, poor fit]",
CC1=NN(C(=O)c2ccccc2F)C(O)(c2ccc(Cl)cc2)C1 (configuration not stated),,inactive: -36.3%
Cc1nn(-c2ccccc2)nc1C(=O)OCC(=O)N1CCC(C)CC1,"inconclusive [activator, single point]",
CCCCNC1c2ccccc2C(=O)N1Cc1ccccc1 (configuration not stated),"inconclusive [activator, single point]",
Cc1ccc2c(c1)sc(=NC(=O)c1cccs1)n2C,"inconclusive [activator, full curve, poor fit]",
CCOC(=O)C1CCN(C(=O)CCCOc2ccccc2)CC1,"inconclusive [activator, partial curve, poor fit]",
OC(CN1CCOCC1)(c1ccccc1)c1ccccn1 (configuration not stated),,inactive: 0.196%
Cc1cc(=O)oc2c(N)c(O)ccc12,"inconclusive [activator, full curve, poor fit]",
COc1ccc(CNc2nc(-c3ccccc3)nn2C(=O)c2ccc([N+](=O)[O-])cc2)cc1,"inconclusive [activator, partial curve, poor fit]",
COCC(C)n1c(SCC(=O)NC(=O)NC2CCCC2)nc2ccccc2c1=O (configuration not stated),"inconclusive [activator, full curve, poor fit]",
O=C(NC(=S)N1CCN(c2nc(-c3ccccc3)cs2)CC1)c1cncc(Br)c1,,inactive: -2.18%
O=C(CN1CC(c2ccccc2)CC1=O)N/N=C/c1cc(Br)ccc1O (configuration not stated),"inconclusive [activator, full curve, poor fit]",
CN1CCCN=C1/C=C/c1cccs1,,inactive: 14.9%
Fc1ccc2cc(-c3cccnc3)ncc2c1,"inconclusive [activator, partial curve, poor fit]",
CCCCNC(=O)CO/N=C(\C)c1cc2ccccc2o1,"inconclusive [activator, partial curve, poor fit]",

Structure (SMILES),Potency,"activity change, positive = activation"
Cc1nnc2sc(-c3csc4c3CCCC4)nn12,,inactive: -18.8%
N#C/C(=C(/O)c1cccc(F)c1)c1nc2ccccc2s1,"inconclusive [activator, partial curve, poor fit]",
COC(=O)c1[nH]c2ccc(C)cc2c1NC(=O)CN1CCC(C)CC1,,inactive: -5.36%
Cc1ccc(OCc2nnc(SCC(=O)CC(=O)Nc3ccccc3)o2)cc1,,inactive: 8.8%
O=C(O)C1=CC[C@@H](c2ccc(Cl)cc2)N(S(=O)(=O)c2ccc(Cl)cc2)[C@H]1c1ccccc1,"inconclusive [activator, partial curve, poor fit]",
COc1ccc(C2C3=C(N=C4SCC(=O)N42)c2ccccc2CC3)cc1 (configuration not stated),"inconclusive [activator, single point]",
COc1ccc([C@H]2CC(=O)C=C(c3cccc(C#N)c3)C2)cc1,"inconclusive [activator, partial curve, poor fit]",
OC(COc1ccc(F)cc1)CN1CCN(CC(O)COc2ccc(F)cc2)CC1 (configuration not stated),,inactive: 8.11%
Cc1cccn2c(=O)c(C=Nc3ccc(Cl)cc3)c(NCCO)nc12,,inactive: -4.51%
O=[N+]([O-])c1ccc(Sc2ncccn2)c([N+](=O)[O-])c1,,inactive: -13.7%
CCC1Oc2ccc(C)cc2N(CC(=O)NCCCN2CCCCC2CC)C1=O (configuration not stated),"inconclusive [activator, partial curve, poor fit]",
c1cncc(-c2nnc(C3CCCCC3)o2)c1,,inactive: 11%
Cc1cccc(-c2noc(-c3ccccc3C(=O)NCC3CCCO3)n2)c1 (configuration not stated),,inactive: 24.4%
COc1ccc(NC(=O)c2[nH]ncc2[N+](=O)[O-])cc1,"inconclusive [activator, partial curve, poor fit]",
O=C(O)CCN1C(=O)c2ccc(NC(=O)CSc3ccccc3)cc2C1=O,,inactive: 11.4%
O=C(CC(=O)c1ccccc1)Nc1ccc2c(c1)OCCO2,"inconclusive [activator, partial curve, poor fit]",
Cn1cc(/C=N/NC(=O)c2ccccc2O)c2ccccc21,,inactive: -2.52%
CCOc1cc(/C=C/c2cc(C(=O)O)c3ccccc3n2)ccc1O,,inactive: 4.74%
CC(C)C(=O)Nc1ccc(NC(=O)c2cccc3c(Br)cccc23)cc1,,inactive: 2.01%
CC(C)(C)c1ccc(-c2nnc3sc(-c4ccccn4)nn23)cc1,"inconclusive [activator, partial curve, poor fit]",
N=c1c(C(=O)NCc2ccc(F)cc2)cc2c(=O)n3ccccc3nc2n1Cc1ccco1,,inactive: -5.93%
CC1CCN(CCC(=O)Nc2ccc3c(c2)CCC3)CC1,"inconclusive [activator, single point]",
c1ccc2oc(C3=NNC(=NC4CC4)SC3)cc2c1,,inactive: 54.6%
COc1ccc(C(=O)NC(=S)NCCO)cc1Br,,inactive: 25.4%

Structure (SMILES),Potency,"activity change, positive = activation"
COCCOC(=O)c1sc(=S)n(CCOC)c1N,"inconclusive [activator, single point]",
COCCNC(=O)C(=O)Nc1ccc(Br)cc1,"inconclusive [activator, partial curve, poor fit]",
COc1ccc(/C=C/C(=O)c2ccc3c(c2)OCO3)cc1OC,"inconclusive [activator, partial curve, poor fit]",
C/C(N)=C(/C#N)C(=O)CSc1nc2ccc(C)cc2[nH]1,"inconclusive [activator, partial curve, poor fit]",
CCC(C)Nc1nc(-c2ccc3c(c2)NC(=O)CO3)cs1 (configuration not stated),"inconclusive [activator, partial curve, poor fit]",
c1ccc(CCN(Cc2ccccc2)C2CCN(C3CCCC3)CC2)cc1,,inactive: 11.5%
CCN(CC)c1ccc(/C=N/NC(=O)CNC(=O)c2ccc3c(c2)OCCO3)cc1,"inconclusive [activator, partial curve, poor fit]",
C/C(=N\NC(=O)c1ccoc1C)c1cccnc1,"inconclusive [activator, full curve, poor fit]",
CCCCNc1c(-c2ccc(-c3ccc(C(C)=O)cc3)c(OC)c2)nc2cnccn12,,inactive: -4.55%
O=C(CC1CC2CCC1C2)NC1CCCCCCC1 (configuration not stated),"inconclusive [activator, partial curve, poor fit]",
O=C(c1cc2ccccc2o1)c1cccs1,"inconclusive [activator, full curve]",
Cc1nc(NC(=O)/C=C/c2ccccc2)sc1C(=O)Nc1ccccc1Cl,,inactive: -8.77%
O=C(CCc1nc2ccccc2s1)c1ccccc1,"inconclusive [activator, full curve, poor fit]",
Cc1ccccc1C(=O)/C(C#N)=N/Nc1c(C)n(C)n(-c2ccccc2)c1=O,"inconclusive [activator, partial curve, poor fit]",
O=C(Nc1nccs1)c1ccc(NC(=O)c2ccco2)cc1,"inconclusive [activator, partial curve, poor fit]",
O=C(NC(=S)Nc1ncccn1)c1ccc(Cl)cc1Cl,"inconclusive [activator, partial curve, poor fit]",
CCc1ccc(NC(=O)C(=O)c2ccccc2NC(C)=O)cc1,"inconclusive [activator, partial curve, poor fit]",
Fc1cc2[nH]c(=S)[nH]c2c(Br)c1N1CCSCC1,"inconclusive [activator, single point]",
CC(=O)c1c[nH]c(C(=O)Nc2ccc(N3CCCCCC3)cc2)c1,"inconclusive [activator, single point]",
O=c1oc(-c2ccccc2)nc2sc3c(c12)CCC3,"inconclusive [activator, partial curve, poor fit]",
Cc1ccc2[nH]c(C(=O)O)c(-c3ccccc3)c2c1,,inactive: 1.18%
Cc1ccc(CNc2ccc3c(c2)ncn3C(C)(C)C)cc1,"inconclusive [activator, partial curve, poor fit]",
O=C(N/N=C\c1cccnc1)c1ccc(Br)s1,,inactive: 20.9%
COc1ccccc1-c1c(C)nn2c(N3CCN(Cc4ccccc4)CC3)cc(C)nc12,"inconclusive [activator, partial curve, poor fit]",
